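48-hour exposure; five concentrations; linearly interpolated endpoints. Definition used: TGI = concentration required for complete inhibition of growth.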
system: NCI-H322M lung; assay: NCI anticancer screen, dose series, 48 h

**Q.** With `O=C1C=C(c2ccccc2)O/C1=C/C(=O)c1ccc(Cl)cc1` as the compound, how does the TGI read?
**A.** Its TGI is greater than 100 µM.

**Q.** Which TGI does the source give for `O=[N+]([O-])c1ccc(NC(=S)N=Nc2c(O)[nH]c3ccc(Br)cc23)cc1` here?
**A.** Its TGI is 23.5 µM.

**Q.** `C/C(CC(=O)Nc1ccc(C)cc1C)=N/N=C(N)N` was tested. Which TGI did it give?
**A.** The TGI was greater than 100 µM.

**Q.** Which TGI does the source give for `O=C(c1ccccc1)c1nnc(C(=O)c2ccccc2)nn1` here?
**A.** The TGI was greater than 344 µM.
